From patent publication US3985779A, “M-phenoxyphenyl propionic acid derivatives and preparation thereof” (Eisai Co., Ltd., priority 1973, dated 1976)
Where two headings read alike, the source gives them in different places.

Legend:
[1] = test system: granuloma induced by Formalin Filter paper Pellet; conditions: 6 days
Kaolin-induced edema = test: Inhibitory activity on Kaolin-induced Edema in Rats (Experiment B); format: in vivo
Dextran-induced edema = test: Inhibitory activity on dextran-induced edema in rats (Experiment C); format: in vivo
Procedure: Inhibitory activity on dextran-induced edema in rats Experiment was carried out in the manner same as those of the preceding Experiments in which dextran was employed as irritant substance.

ARRS-induced edema = test: Inhibitory activity on anti-rat-rabbit serum (ARRS)-induced edema in rats (Experiment D); format: in vivo
Procedure: Inhibitory activity on anti-rat-rabbit serum (ARRS)-induced edema in rats Similar Experiments was carried out by using ARRS as irritant substance.

[2] = test system: Carrageenin-induced edema; test: Inhibitory activity on Carrageenin-induced Edema in rats (Experiment A); format: in vivo, rats (male Wistar); conditions: 3 hours after Carrageenin
Procedure: Inhibitory activity on Carrageenin-induced Edema in rats
Carrageenin was used as the agent for inducing edema and 5 male rats of Wistar strain having body weight of about 150 grs. after fasting for 16-17 hours were used as test animals. The inhibitory activity of the test compounds were determined with the paw edema method in accordance with Winter C. A. et al; Proc. Soc. Exp. Biol. Med. 111, 544 (1962).
The compounds were suspended in an aqueous solution of gum arabic and the same were orally administered to the rats at 1 hour before the injection of Carrageenin.
The observation was effected by measuring, after 3 hours the administration of the Carrageenin, the enlarged volumes of hind paw of the rats.

SMILES: CC(C(=O)O)c1cccc(Oc2ccc(F)cc2)c1 (centres unmarked) [(7)]
- Adrenal ([1]; daily oral 10 mg/kg): 44.2 mg
- Thymus ([1]; daily oral 10 mg/kg): 427 mg
- Adrenal ([1]; daily oral 50 mg/kg): 44.8 mg
- Thymus ([1]; daily oral 50 mg/kg): 482 mg
- % of Inhibition (Kaolin-induced edema; after 3 hrs, oral 10 mg/kg): 6%
- Edema D. ± S.E. (Kaolin-induced edema; after 3 hrs, oral 10 mg/kg): .393 ± .047
- % of Inhibition (Kaolin-induced edema; after 3 hrs, oral 50 mg/kg): 8%
- Edema D. ± S.E. (Kaolin-induced edema; after 3 hrs, oral 50 mg/kg): .386 ± .050
- % of Inhibition (Kaolin-induced edema; after 5 hrs, oral 10 mg/kg): 12%
- Edema D. ± S.E. (Kaolin-induced edema; after 5 hrs, oral 10 mg/kg): .496 ± .045
- % of Inhibition (Kaolin-induced edema; after 5 hrs, oral 50 mg/kg): 16%
- Edema D. ± S.E. (Kaolin-induced edema; after 5 hrs, oral 50 mg/kg): .473 ± .040
- % of Inhibition (Kaolin-induced edema; after 7 hrs, oral 10 mg/kg): 6%
- Edema D. ± S.E. (Kaolin-induced edema; after 7 hrs, oral 10 mg/kg): .568 ± .046
- % of Inhibition (Kaolin-induced edema; after 7 hrs, oral 50 mg/kg): 8%
- Edema D. ± S.E. (Kaolin-induced edema; after 7 hrs, oral 50 mg/kg): .555 ± .035
- % of Inhibition (Dextran-induced edema; after 2 hrs, oral 10 mg/kg): 12%
- Edema D. ± S.E. (Dextran-induced edema; after 2 hrs, oral 10 mg/kg): .736 ± .038
- % of Inhibition (Dextran-induced edema; after 2 hrs, oral 50 mg/kg): 10%
- Edema D. ± S.E. (Dextran-induced edema; after 2 hrs, oral 50 mg/kg): .750 ± .073
- % of Inhibition (Dextran-induced edema; after 3 hrs, oral 10 mg/kg): 8%
- Edema D. ± S.E. (Dextran-induced edema; after 3 hrs, oral 10 mg/kg): .693 ± .037
- % of Inhibition (Dextran-induced edema; after 3 hrs, oral 50 mg/kg): 6%
- Edema D. ± S.E. (Dextran-induced edema; after 3 hrs, oral 50 mg/kg): .707 ± .053
- % of Inhibition (ARRS-induced edema; after 2 hrs, oral 10 mg/kg): 3%
- Edema D. ± S.E. (ARRS-induced edema; after 2 hrs, oral 10 mg/kg): .661 ± .085
- % of Inhibition (ARRS-induced edema; after 2 hrs, oral 50 mg/kg): 12%
- Edema D. ± S.E. (ARRS-induced edema; after 2 hrs, oral 50 mg/kg): .601 ± .035
- % of Inhibition (ARRS-induced edema; after 3 hrs, oral 10 mg/kg): 15%
- Edema D. ± S.E. (ARRS-induced edema; after 3 hrs, oral 10 mg/kg): .608 ± .076
- % of Inhibition (ARRS-induced edema; after 3 hrs, oral 50 mg/kg): 19%
- Edema D. ± S.E. (ARRS-induced edema; after 3 hrs, oral 50 mg/kg): .581 ± .054
- % of Inhibition ([2]; oral 2.0 mg/kg): 22%
- Edema density ± S.E. ([2]; oral 2.0 mg/kg): .422 ± .040
- % of Inhibition ([2]; oral 10.0 mg/kg): 23%
- Edema density ± S.E. ([2]; oral 10.0 mg/kg): .418 ± .038
- % of Inhibition ([2]; oral 50.0 mg/kg): 32%
- Edema density ± S.E. ([2]; oral 50.0 mg/kg): .368 ± .073
